PubChem BioAssay AID624202 (National Center for Advancing Translational Sciences (NCATS), 2012)
Screen size: about 380,000 compounds; about 4,000 (1.1%) were called active. Inconclusive results, whose numbers are uncertain, are shown with a selection of clear calls. Calls follow the shape of the dose curve; as a rule, active = well fitted activation curve with a large enough effect; inconclusive = small, poorly fitted or top-dose-only effect; inactive = no such curve, though single readings can be large or run the other way. Potencies beside an inconclusive call are fits to weak or partial responses and may not hold up.

Assay: qHTS Assay to Identify Small Molecule Activators of BRCA1 Expression; also: nearly all actives have a fitted effect of over 80% in size
Conditions: MCF7-BRCA1-FFLuc reporter, luminescence, 48 h; activation: at 46.1 µM (top of the series), scaled: vehicle 0%, 10 µM genistein 100% unless noted
Summary of the method: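 Cells: MCF7-BRCA1-FFLuc, 2000/well. Exposure: 48 h, 37 °C, 5% CO2. Read: luminescence, 15 min post-substrate. Controls: genistein 10 microM (maximal activation), DMSO (neutral).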
Potency is read from the fitted curve at half-maximal effect; tags tell the direction and shape of the fitted curve.

Compound | Potency | activation
CSc1n[nH]c(NCc2ccc(C)cc2)n1 | inconclusive: 1.41 µM [activator, full curve, poor fit] | –
Cc1occc1C(=O)NN=C1C2CC3CC(C2)CC1C3 | inconclusive: 35.5 µM [activator, single point] | –
Cc1ccc(NC(=O)c2ccc(F)cc2)nc1 | inconclusive: 1.58 µM [activator, full curve, poor fit] | –
O=[N+]([O-])c1ccccc1OCCCOc1cccc2cccnc12 | inconclusive: 11.2 µM [activator, partial curve, poor fit] | –
COc1ccc2c(c1)c(C(=O)N/N=C/c1ccc(O)c(O)c1)c(C)n2C | – | inactive: -79.7%
CC(=O)c1sc(N/N=C\c2ccc(N(C)C)cc2)nc1C | inconclusive: 1.12 µM [activator, full curve, poor fit] | –
CC(=O)Nc1ccc(NC(=O)CSc2nc3c([nH]c4ccccc43)c(=O)n2-c2ccccc2F)cc1 | – | inactive: -59.7%
Cc1ccc(-c2cc(C(=O)N3CCCCCC3)no2)cc1 | inconclusive: 1.12 µM [activator, full curve, poor fit] | –
CCC(Cn1nnc2ccccc2c1=O)NC(=O)Nc1cc(Cl)ccc1OC (stereo not drawn) | – | inactive: -2.68%
O=C(NC(=S)Nc1ccccn1)c1ccc(-c2ccccc2)cc1 | – | inconclusive: 71.8% [activator]
CCn1nc(C(=O)OCC(=O)Nc2nc(-c3ccc(OC)cc3)cs2)c2ccccc2c1=O | active: 6.31 µM | –
CCc1nc2oc3ccccc3c(=O)c2cc1C(=O)OC | active: 3.16 µM | –
c1ccc(-c2ccc3cnccc3n2)cc1 | inconclusive: 17.8 µM [activator, single point] | –
O=C(NC1CCCCCCC1)c1cccc(Cl)c1 | inconclusive: 12.6 µM [activator, partial curve, poor fit] | –
O=C(N/N=C/c1cccc([N+](=O)[O-])c1)c1cccs1 | active: 12.6 µM | –
Cc1ccc(-c2nc3ccc(NS(=O)(=O)c4ccccc4)cc3[nH]2)o1 | inconclusive: 12.6 µM [activator, partial curve, poor fit] | –
CN(C(=O)c1cc2sccc2n1C)C1CCCCC1 | active: 6.31 µM | –
O=C(C1CCCCC1)N1C[C@H](n2cc(-c3ccc(F)cc3)nn2)[C@@H](O)C[C@@H]1c1ccccc1 | – | inactive: 0%
COc1ccccc1C(=O)OCCc1ccccc1 | inconclusive: 11.2 µM [activator, partial curve, poor fit] | –
CN(Cc1ccco1)S(=O)(=O)c1csc(C(N)=O)c1 | – | inactive: 8.01%
COc1ccccc1OCC(=O)N/N=C1/C=C(C)CC1 | – | inactive: 13.7%
CCOc1ccc2nc(C(=O)N3CCCC(C)C3)sc2c1 (stereo not drawn) | inconclusive: 1 µM [activator, full curve, poor fit] | –
COc1ccccc1N1CCN(Cc2ccc(OC)c(OC)c2OC)CC1 | – | inactive: 3.51% [at 1.84 µM, scaled: vehicle 0%, 10 µM genistein 100%]
c1ccc(Oc2cc(-n3cccn3)ncn2)cc1 | inconclusive: 2.24 µM [activator, full curve, poor fit] | –
CS(=O)(=O)Nc1ccc2c(c1)[C@H]1C[C@H](CC(=O)NCc3ccccc3)O[C@H](CO)[C@H]1O2 | – | inactive: 19.4%

Compound | Potency | activation
CCCN1C(=O)c2ccccc2NC1c1ccc(OC)c(COc2ccc([N+](=O)[O-])cc2)c1 (stereo not drawn) | – | inactive: 0%
CCN1C(=S)SC(=O)C1=C1C=C(C)OC(C)=C1 | inconclusive: 11.2 µM [activator, partial curve, poor fit] | –
Cc1cc(N/C=C/C(=O)c2ccc(Br)cc2)no1 | inconclusive: 12.6 µM [activator, partial curve, poor fit] | –
COC(=O)C(C)N1C(=O)S/C(=C/c2cc(C)n(-c3ccccn3)c2C)C1=O (stereo not drawn) | inconclusive: 3.16 µM [activator, partial curve, poor fit] | –
Cc1cc(N2CCOCC2)nc2ccc(Cl)cc12 | active: 7.94 µM | –
Nc1cc(C(=O)c2ccccc2)ccc1N1CCOCC1 | inconclusive: 7.08 µM [activator, full curve, poor fit] | –
O=C(OCC(=O)N1CCOCC1)c1cccc(F)c1 | inconclusive: 14.1 µM [activator, partial curve, poor fit] | –
CCC1(OC(=O)CN(C)C)C(=O)OCc2c1cc1n(c2=O)Cc2cc3c(N)cccc3nc2-1 (stereo not drawn) | – | inconclusive: -87.2% [activator]
O=C(Nc1ccc(SC(F)F)cc1)c1ccc(F)cc1 | active: 3.16 µM | –
N/C(=N\OC(=O)c1ccc2c(c1)OCO2)c1ccc(Cl)cc1 | active: 8.91 µM | –
Cc1cnc(Nc2nc3ccccc3o2)nc1C(=O)Nc1cccc(C(F)(F)F)c1 | – | inactive: -37.2%
Cc1ccc(-c2nn(-c3ccccc3)cc2/C=N/NC(=O)c2ccncc2)o1 | inconclusive: 3.55 µM [activator, full curve, poor fit] | –
O=[N+]([O-])c1cc(C=NN2CCCCCC2)ccc1Cl | active: 2.82 µM | –
Cc1ccc2cc(NC(=O)c3cccc(F)c3)ccc2n1 | inconclusive: 1.58 µM [activator, partial curve, poor fit] | –
CC(C)n1c(NCc2ccccc2O)nc2ccccc21 | – | inactive: 3.07%
Nc1ccc(-c2nc3cc(N)ccc3s2)cc1 | – | inactive: -6.08%
CSc1ccccc1OCc1cc(C(=O)N2C[C@H]3CC[C@H]2C3)no1 | inconclusive: 10 µM [activator, partial curve, poor fit] | –
COc1ccc([C@H]2Cc3cc(O)cc(O)c3C(=O)O2)cc1O | active: 10 µM | –
Cc1nc2cc(NC(=O)N3CCC(c4ccccc4)C3)ccc2n1C (stereo not drawn) | inconclusive: 17.8 µM [activator, single point] | –
O=C(Nc1ccc2oc(-c3ccccc3Cl)nc2c1)c1cncc(Br)c1 | inconclusive: 1.58 µM [activator, partial curve, poor fit] | –
COc1cccc(Nc2ncnc3c2cnn3-c2cccc(C)c2)c1 | inconclusive: 11.2 µM [activator, partial curve, poor fit] | –
c1ccc(OCCSc2nnnn2-c2ccccc2)cc1 | inconclusive: 2.24 µM [activator, full curve, poor fit] | –
S=C(NC1CCCCC1)c1ccc2c(c1)OCO2 | – | inactive: 67.3%
CN(C)c1ccc(NC(=O)c2ccc3nsnc3c2)cc1 | inconclusive: 1.58 µM [activator, partial curve, poor fit] | –
COc1ccc2c(c1OC)C(=O)OC2Nc1nc(-c2cc3ccccc3oc2=O)cs1 (stereo not drawn) | inconclusive: 1.26 µM [activator, partial curve, poor fit] | –

Compound | Potency | activation
COc1ccc(-c2nnc(-c3ccccc3O)o2)cc1 | inconclusive: 2.82 µM [activator, full curve, poor fit] | –
O=C(COc1ccc2cc(Br)ccc2c1)N1CCCC1 | inconclusive: 11.2 µM [activator, partial curve, poor fit] | –
COc1ccc(N(CC(=O)NCc2ccco2)C(=O)CCC(=O)Nc2ccccn2)cc1 | – | inactive: 1.23%
COc1ccccc1N(CC(N)=O)S(=O)(=O)c1ccc(C)cc1 | – | inactive: -6.79%
Cc1cc(-c2ccccc2)n2ncc(-c3ccccc3)c2n1 | inconclusive: 3.16 µM [activator, partial curve, poor fit] | –
CC(C)(C)C(=O)Nc1sc(-c2ccccc2)cc1C(=O)O | inconclusive: 8.91 µM [activator, partial curve, poor fit] | –
Cc1c(C(N)=O)sc2nc(-c3ccccc3)cn12 | inconclusive: 14.1 µM [activator, partial curve, poor fit] | –
Cc1ccc(/C=N/NC(=O)c2cccs2)s1 | active: 11.2 µM | –
O=C(Nc1ccc2oc(-c3ccc(Cl)c(Cl)c3)nc2c1)c1ncn[nH]1 | inconclusive: 0.562 µM [activator, full curve, poor fit] | –
O=C1/C(=C/Nc2ccc3c(c2)OCO3)CCc2ccccc21 | – | inconclusive: -89.2% [activator]
O=C(Nc1cc(Cl)cc(Cl)c1)C1CCC(=O)N1Cc1ccccc1Cl (stereo not drawn) | – | inactive: -17.1%
O=C(Nc1nnc(C2CCCCC2)s1)C1CC(=O)N(c2ccc(F)cc2)C1 (stereo not drawn) | – | inactive: -9.72%
COc1cc(SC)ccc1C(=O)Nc1ccon1 | inconclusive: 12.6 µM [activator, partial curve, poor fit] | –
CCN(CCO)c1ccc(N=Nc2cc(C)[nH]n2)cc1 | – | inconclusive: -92.7% [activator]
N#Cc1nc(N)nc(N2CCCCC2)n1 | – | inactive: -34.5%
Cc1cc(OCc2cc(C(=O)NC(C)c3cnn(C)c3)no2)cc(C)c1Cl (stereo not drawn) | inconclusive: 2.82 µM [activator, full curve, poor fit] | –
CCOC(=O)C1=NN(c2ccc(Cl)cc2)C(=O)C1 | active: 3.98 µM | –
Cc1ccc(C(=O)O)cc1NC(=O)Nc1ccc2c(c1)OCO2 | inconclusive: 17.8 µM [activator, partial curve, poor fit] | –
COc1cc(NC(=O)c2cccs2)ccc1NC(=O)c1ccco1 | inconclusive: 15.8 µM [activator, single point] | –
Cn1c(=O)cc(N2CCN(C(=O)c3ccco3)CC2)[nH]c1=O | – | inactive: 3.26%
COc1ccc(NC(=O)c2ccc(NC(=O)COC(=O)c3cnc(C)cn3)cc2)cc1 | inconclusive: 12.6 µM [activator, partial curve, poor fit] | –
CCOC(=O)c1nn(C)c(C)c1Cl | – | inactive: 10.4%
Cc1cc(/C=C(\C#N)C(=O)Nc2ccccc2F)c(C)[nH]1 | inconclusive: 1.26 µM [activator, partial curve, poor fit] | –
